In paper PMC4336329 (PLoS ONE, 2015):
About 2,200 (0.71%) of roughly 310,000 compounds showed an effect of 50% or more. The effect is printed as a negative number. The list shows a part of the results.

Target: human ether-à-go-go-related gene (hERG) potassium channel (human, UniProt Q12809)
Experiment: primary screen, population patch clamp on CHO cells stably expressing hERG

human ether-à-go-go-related gene (hERG) potassium channel, sequence (Q12809 whole entry, looked up): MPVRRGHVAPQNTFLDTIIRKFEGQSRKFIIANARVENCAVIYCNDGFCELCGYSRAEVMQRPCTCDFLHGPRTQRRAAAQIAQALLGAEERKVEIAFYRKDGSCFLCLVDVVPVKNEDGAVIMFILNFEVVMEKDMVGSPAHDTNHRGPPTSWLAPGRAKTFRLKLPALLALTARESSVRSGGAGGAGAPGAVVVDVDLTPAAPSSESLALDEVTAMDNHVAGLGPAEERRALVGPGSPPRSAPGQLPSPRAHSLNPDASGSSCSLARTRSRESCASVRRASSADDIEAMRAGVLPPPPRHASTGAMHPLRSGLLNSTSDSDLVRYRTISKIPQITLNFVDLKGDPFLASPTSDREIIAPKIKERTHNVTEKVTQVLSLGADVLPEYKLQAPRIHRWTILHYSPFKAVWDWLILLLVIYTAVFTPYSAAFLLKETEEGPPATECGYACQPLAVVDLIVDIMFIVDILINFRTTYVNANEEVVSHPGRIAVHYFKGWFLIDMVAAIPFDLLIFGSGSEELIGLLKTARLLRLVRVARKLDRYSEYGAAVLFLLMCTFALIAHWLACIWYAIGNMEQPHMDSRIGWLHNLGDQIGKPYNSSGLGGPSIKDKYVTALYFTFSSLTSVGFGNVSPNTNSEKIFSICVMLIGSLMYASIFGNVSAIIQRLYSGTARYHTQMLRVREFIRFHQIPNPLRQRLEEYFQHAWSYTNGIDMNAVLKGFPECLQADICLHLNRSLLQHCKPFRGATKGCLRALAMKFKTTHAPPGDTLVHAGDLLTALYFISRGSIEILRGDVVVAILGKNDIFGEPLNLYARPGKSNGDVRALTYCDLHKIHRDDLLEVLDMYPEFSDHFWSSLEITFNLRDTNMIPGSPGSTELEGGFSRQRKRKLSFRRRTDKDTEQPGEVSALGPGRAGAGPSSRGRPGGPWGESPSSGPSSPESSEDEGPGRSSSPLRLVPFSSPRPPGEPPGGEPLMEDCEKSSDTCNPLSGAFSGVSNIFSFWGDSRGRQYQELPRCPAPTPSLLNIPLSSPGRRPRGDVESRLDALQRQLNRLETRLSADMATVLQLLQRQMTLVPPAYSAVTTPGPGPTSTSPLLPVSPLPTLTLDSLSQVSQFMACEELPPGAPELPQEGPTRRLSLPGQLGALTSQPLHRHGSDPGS

SMILES	hERG current change (%, negative = inhibition) at 1uM [%]
O=C(Nc1ccccc1N1CCCCC1)c1ccco1	21.2
Cc1cccc2cc(CN(Cc3cccs3)C(=S)NCC3CCCO3)c(=O)[nH]c12 (centres unmarked)	14.7
COc1cc2c(cc1/C=C1/NC(=O)N(CC(=O)Nc3ccccc3)C1=O)OCO2	0.683
CCc1ccc(NC(=O)Cn2cccc2)cc1	3.61
COc1cc2c(cc1OC)C(C(=O)N1CCN(c3ccccc3)CC1)C(c1cccs1)N(C)C2=O (centres unmarked)	-23.2
NNC(=O)CSc1nc(-c2ccccc2)cn1-c1ccccc1	3.42
CC1CCC(C(C)C)C(OC(=O)CSc2nnc(N)s2)C1 (centres unmarked)	5.19
CCc1ccccc1NC(=O)CN1CCN(C(=O)C2CCN(C(=O)/C=C/c3ccccc3)CC2)CC1	-74.5
COc1ccc(C)cc1S(=O)(=O)N(C)CC(=O)NCc1ccco1	10.9
Cc1cc(C)cc(NC(=S)N2CCN(c3ncc(C(F)(F)F)cc3Cl)CC2)c1	4.11
CCCOc1ccc(N2C(=O)CC(S/C(N)=N/N=C(\C)c3cccs3)C2=O)cc1 (centres unmarked)	1.43
Cc1ccc(S(=O)(=O)c2c(C)cc(C)nc2N2CCCC2)cc1	0.422
Cc1ccc(NC(=O)c2cc(S(=O)(=O)N3CCCCC3)ccc2N2CCOCC2)cc1F	12.7
CCN1CCCC1CNCc1cc(OC)c(OC)c(OC)c1.Cl (centres unmarked)	7.34
CC(=O)Oc1ccc(/C(C)=N\N2CCN(Cc3ccc(Cl)cc3)CC2)cc1	-16.4
CC1(C)Cc2c(c(-c3ccco3)nc3sc4c(NCCO)ncnc4c23)CO1	9.73
O=C(COc1coc(CN2CCc3ccccc3C2)cc1=O)N1CCOCC1	14.6
CN(C)CCSc1nc(-c2ccccc2)nc2c1CCCC2	8.01
Cc1c(Cl)c([N+](=O)[O-])nn1CCCC(=O)Nc1ccc(Cl)cc1Cl	0.573

SMILES	hERG current change (%, negative = inhibition) at 1uM [%]
N#Cc1c(NC(=O)CSc2nc(-c3ccco3)cc(C(F)(F)F)n2)sc2c1CCCC2	13.9
O=C1CCCN1CCCNS(=O)(=O)c1ccc(Cl)c(C(=O)N2CCOCC2)c1	12.8
COc1ccccc1C(=O)c1cc2ccc(O)cc2oc1=O	11.7
C[C@@H]1NC(=O)N[C@@H]1CCCCCC(=O)O	11
C/C(CC(=O)Nc1ccccn1)=N\NC(=O)c1ccncc1	13.8
CCn1c(=O)cc(SCC(=O)N2CCC3(CC2)OCCO3)c2ccccc21	15.3
COc1ccc(NC(=O)CSc2ccc3nnc(-c4cccnc4)n3n2)cc1	-40
Cc1cc2c(cc1S(=O)(=O)N(C)Cc1ccccc1)OCC(=O)N2	17.8
COc1cc(NC(=O)COc2cc(C)cc3oc(=O)c(C)c(C)c23)cc(OC)c1OC	22.7
Cc1c(-c2ccccc2)nnn1-c1ccc(F)cc1F	3.36
CCCC(=O)c1ccc(N2CCN(C(=O)c3cccs3)CC2)c(F)c1	-18.1
CCOCCn1c(CN2CCCC(C)C2)nc2c1c(=O)n(C)c(=O)n2C (centres unmarked)	17.4
CCOC(=O)[C@H]1[C@H]2COc3cc(OC)ccc3[C@@H]2N2C(=O)N(c3ccc(Cl)cc3)C(=O)[C@@]12C	14.8
COc1ccc(NC2CCCN(C(=O)CCN3Cc4ccccc4C3=O)C2)cc1 (centres unmarked)	-3.04
O=C1C(=O)N(CCCn2ccnc2)C(c2ccc([N+](=O)[O-])cc2)/C1=C(\O)c1ccc2c(c1)OCCO2 (centres unmarked)	11.8
COc1ccc(CCC(=O)NCCc2nc3ccccc3[nH]2)cc1	-1.74
O=C(CN1CCN(Cc2ccccc2)CC1)N/N=C/c1ccc(Br)s1	-0.858
Cc1ccc(C(=O)OC(C)CN2CCN(C)CC2)cc1.Cl (centres unmarked)	10.8
CCCOc1ccc(C(=O)Nc2ccc(S(=O)(=O)N3CCN(C)CC3)cc2)cc1	13.3

SMILES	hERG current change (%, negative = inhibition) at 1uM [%]
Cc1nn(-c2ccccc2)c(C)c1C(=O)OCC(=O)N(C)C1CCS(=O)(=O)C1 (centres unmarked)	3.28
COc1cccc(OC)c1C(=O)Nc1ccc([N+](=O)[O-])cn1	2.68
CC(C)CCNC(=O)CN(C(=O)CCC(=O)Nc1ccccn1)c1ccc2c(c1)OCO2	-10.7
COc1cc(C(=O)Nc2nnc(-c3sccc3C)s2)cc(OC)c1OC	-3.71
Cl.NC(N)=NNC(=O)c1ccccc1Cl	14
COc1cc(C(=O)O)c([N+](=O)[O-])c(OC)c1OC	13
COc1ccc(/C(C)=N/NC(=O)c2ccc(NS(=O)(=O)c3cccs3)cc2)cc1	5.94
COCCn1c(C)cc(C2=NNC(=NC3CC3)SC2)c1C.Cl	7.94
O=C(CN1CCCCCC1=O)OCc1ncc(-c2ccccc2)o1	10.1
CCN(CC)S(=O)(=O)c1cc(NC(=O)CSc2n[nH]c(N)n2)ccc1C	5.37
CSc1nnc(-c2sccc2OCc2ccccc2)n1C	-5.47
c1ccc(Oc2ccc(-c3ccnc4nc(N5CCOCC5)nn34)cc2)cc1	14.7
C=C(C)c1cccc(C(C)(C)NC(=O)Nc2ccc(C(C)=O)cc2)c1	8.88
CN(C)S(=O)(=O)c1ccc(NC(=S)NC(=O)C2CCC2)cc1	9.81
CC(C)(C)C1CCC(C(=O)NNC(=O)c2ccncc2)CC1 (centres unmarked)	6.06
CN(CC(=O)Nc1ccc(F)c(F)c1F)C(=O)c1ccc(-n2cncn2)cc1	-21.8
S=c1[nH]nc(C2CCCCC2)n1/N=C/c1ccccn1	20.4
O=C(COc1ccccc1)OCC(=O)N1CCCc2ccccc21	13.6
